Test results from the supplement of paper PMC3334620.
Whole data set: some 33,000 sequences, median “E-score (-0.5 to 0.5)” near -0.054, cut for the highest 2% near 0.35. Some of the results follow.

The sequences below were run against T1, Stb5 (UniProt P38699) (assay: PBM E-score (8-mer binding enrichment) (E-score (-0.5 to 0.5)); higher = stronger / more preferred TF binding; most listed sequences are background and not binding sites). Settings: protein concentration: 200 nM; construct: GST-full length.
T1 sequence: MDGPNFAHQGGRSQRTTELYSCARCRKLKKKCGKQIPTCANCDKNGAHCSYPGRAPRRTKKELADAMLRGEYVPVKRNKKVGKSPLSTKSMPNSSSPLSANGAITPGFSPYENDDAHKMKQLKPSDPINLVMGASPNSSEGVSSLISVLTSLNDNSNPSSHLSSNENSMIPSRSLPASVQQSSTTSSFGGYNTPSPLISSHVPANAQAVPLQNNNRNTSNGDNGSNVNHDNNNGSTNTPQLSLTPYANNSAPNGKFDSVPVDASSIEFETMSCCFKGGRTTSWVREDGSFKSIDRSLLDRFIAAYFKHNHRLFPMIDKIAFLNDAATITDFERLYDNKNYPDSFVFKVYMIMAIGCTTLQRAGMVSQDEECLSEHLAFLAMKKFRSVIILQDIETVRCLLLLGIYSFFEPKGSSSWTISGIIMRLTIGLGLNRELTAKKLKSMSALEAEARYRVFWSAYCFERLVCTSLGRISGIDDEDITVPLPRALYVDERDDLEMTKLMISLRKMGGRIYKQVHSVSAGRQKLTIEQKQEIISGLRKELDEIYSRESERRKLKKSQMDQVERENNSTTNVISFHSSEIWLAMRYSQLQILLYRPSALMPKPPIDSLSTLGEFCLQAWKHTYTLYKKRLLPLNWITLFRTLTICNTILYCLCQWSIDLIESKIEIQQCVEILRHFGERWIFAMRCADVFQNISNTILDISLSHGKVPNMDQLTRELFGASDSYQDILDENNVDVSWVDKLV
Summary of the method: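 Full-length yeast transcription factors or their DNA-binding domains, GST-tagged and expressed with PURExpress, were applied at about 100-200 nM to universal all-10-mer Agilent arrays. These arrays had been made double-stranded by primer extension on fresh or once-stripped slides. Detection used fluorescent anti-GST, normalisation used masliner, and E-scores for ungapped eight-base words pooled with reverse complements came from the Universal PBM Analysis Suite.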

Sequence | PBM E-score
ATGAAGAA | -0.087
GAAAGCCC | 0.308
ATCAAGCA | -0.19
CTGCGGTC | 0.246
TATGACGA | 0.0645
AGTCTATG | -0.219
CCTTAAAA | -0.313
ATCCATAG | 0.0827
CCAGTATA | -0.066
GGTGCAAC | 0.154
GAGTCGGA | 0.307
ACGCCGAG | 0.27
AGCTCGCG | -0.147
CACGACCG | 0.115
AGGACGCG | -0.116
AAAAGACG | -0.0626
ACGTCTGC | -0.202
ACAAGTTA | 0.0827
CTGGCAAG | -0.193
CAGTAGAG | -0.292
AGCTTATG | -0.234
ATTATCTC | 0.199
TAAGGAAA | -0.125
CGGTTCGA | 0.138
AGAGCCGG | 0.207

Sequence | PBM E-score
ATTGTTAC | 0.133
CAGTAAGG | -0.183
CTTAGCGC | 0.13
AGAACGAC | -0.0237
AAACGAAT | -0.223
GGACCGCC | 0.288
ACCGTGCT | 0.0371
AGTATTGG | -0.266
CAGGTATG | -0.109
CGCTCGAC | -0.0458
CTCCTGAC | -0.0397
TCGGATCA | 0.0854
TACCAATA | -0.158
GAGTTCAC | -0.129
AAAAAGCA | -0.203
AAAGGATG | -0.133
CCACATAG | 0.0636
AAAGTCAC | -0.1
CCCCCTAA | -0.344
TCACTACA | -0.123
CTGCTAAA | 0.00756
CGTGGCGC | 0.199
AGTTACAT | -0.231
GCGGGACA | 0.22
ATATCACA | -0.0666

Sequence | PBM E-score
AAACGTAA | -0.182
CAAGGGAC | -0.165
CACGGGTA | -0.0422
AGATGGTA | 0.0213
AGCGTCTG | 0.0201
TATTCAGA | -0.0956
ATCGTTCC | -0.0144
ACCCTTAG | -0.28
ATAGGTAC | -0.103
CTTTCGAA | -0.214
AGACCATG | -0.346
ACCTAGGG | 0.09
AAACTAGA | -0.0984
CTCTACTC | -0.132
GTTAGAGA | -0.246
AATTCCCA | -0.261
AGAACTTA | -0.169
AACTTCAC | -0.293
CCCTTTCG | 0.0776
AGTTCTAG | -0.0956
AGGCTAGC | -0.249
ATGTAACG | 0.029
CAGCCAAG | -0.228
AACTGGGG | -0.131
ATACTACC | 0.194

Sequence | PBM E-score
AAAGACAC | -0.042
CGTCAGCC | 0.0539
ATAATACA | 0.0704
CGAACAAC | -0.167
GATGGGCC | -0.0615
ATAGTCCG | 0.338
GATGAACC | -0.00688
TAAGAGAA | -0.108
GATGGCTA | -0.167
TGAACACA | -0.207
AGTCATAG | -0.255
CCCGCATA | 0.146
GCCGTACA | 0.00971
AGAGAGGA | -0.163
ATTTCTGC | 0.0353
CTTAAGCA | -0.0835
CCACGGGG | 0.235
CCGCCAAC | 0.315
GTGAGAAA | 0.0523
AAAGAGTT | -0.263
GTTAGAAA | 0.0727
AAACAACC | -0.122
CCCTGCCG | 0.0368
GAGGAGGA | -0.307
AATTATTG | -0.174

Sequence | PBM E-score
ACCGGTAA | 0.326
GTGTCGTA | -0.0721
ACCGTTAG | 0.167
AGCCAATG | -0.293
AATATGAC | 0.144
CCTATTAA | -0.11
CAGATAAC | -0.0135
ACTCGTGG | -0.251
CTCTCAGA | -0.301
CTTTTAAC | 0.00212
GTGCGTCA | 0.0663
CAACTAGC | -0.0524
GGTACGCA | 0.00984
GTGCCGTA | 0.234
CGGACAGA | 0.266
CCCGGACA | 0.315
ACACGCGA | -0.128
CTTATGTA | -0.0616
ATCCAGCC | -0.198
TAACGTAA | -0.0943
TAGATTCA | -0.207
AAAGTCCG | 0.466
AGACTGAA | -0.0768
CCCGTTCG | 0.307
ACCTCCAT | -0.0211

Sequence | PBM E-score
AACTTGGT | -0.0918
ATTCAGAG | 0.0704
CCGAACTA | 0.177
CACGAGAC | -0.0206
GTCGGTCA | 0.259
CGGGTCAC | -0.0843
AAACGGTT | 0.00494
ACGCCTAG | -0.0889
AGAATCGA | -0.28
CGTATCAG | 0.0749
ACGCTCTG | -0.287
CCACCATA | -0.127
ATTTGATG | -0.00475
GTCTCCCA | -0.244
ACGTTAAC | -0.0959
CGAAGATA | 0.0132
ACATTCAC | -0.144
CATCCTTA | -0.202
AGAAGGGG | -0.182
CCGCCTCA | 0.299
CCTGCGCG | 0.0663
CTCTTGGA | -0.085
CCAGGGAG | -0.319
ATTGACTA | -0.171
GGCCGTCA | 0.155

Sequence | PBM E-score
GAAATCTC | -0.0474
GACTGTTA | -0.0185
TCTGCACA | -0.108
AAGCAGGC | -0.0888
CTGTTCCA | -0.313
GACGGCCC | 0.211
ACCCGGCT | 0.227
TCGGCACA | 0.253
ATCATCCG | 0.142
CCGAGTTA | 0.129
CTTCGTGA | -0.0544
ATGGGTGC | -0.0771
AGGAGTCC | -0.092
AAACACTC | -0.0554
AGGATCTC | -0.211
AGCACACA | -0.343
CTGCACAA | -0.209
CAACCGAC | 0.148
CTGATATC | 0.211
AATCTAAA | -0.0331
AGATGAGA | -0.167
ACCCTGAT | 0.0149
